This is an account of results in patent publication US6861390B2, “Derivatives of UK-2A” (priority 2001, dated 2005).

A value given as a limit tells only on which side of the number the result lay.

In the assay the test system is Plasmopara viticola (PLASVI). The assay is described as follows: whole plant or invertebrate. The settings on record: 24 h, read-out: T4 PLASVI in vivo 1 Day Protectant, control of fungal infection. An excerpt: A blank space indicates not tested.
As to `COCOc1c(OC)ccnc1C(=O)N[C@H]1COC(=O)[C@H](Cc2ccccc2)[C@@H](OC(=O)C(C)C)[C@H](C)OC1=O` [Compound 4], the pest or weed control at 100 ppm is < 25%.

On to `CCOCOc1c(OC)ccnc1C(=O)N[C@H]1COC(=O)[C@H](Cc2ccccc2)[C@@H](OC(=O)C(C)C)[C@H](C)OC1=O` [Compound 5], for which the pest or weed control at 100 ppm is < 25%.

In the case of `CCCOCOc1c(OC)ccnc1C(=O)N[C@H]1COC(=O)[C@H](Cc2ccccc2)[C@@H](OC(=O)C(C)C)[C@H](C)OC1=O` [Compound 6], the pest or weed control at 100 ppm is < 25%.

Consider `COc1ccnc(C(=O)N[C@H]2COC(=O)[C@H](Cc3ccccc3)[C@@H](OC(=O)C(C)C)[C@H](C)OC2=O)c1OCOC(C)C` [Compound 7], for which the pest or weed control at 100 ppm was in the range of 25 to 74%.

For `COc1ccnc(C(=O)N[C@H]2COC(=O)[C@H](Cc3ccccc3)[C@@H](OC(=O)C(C)C)[C@H](C)OC2=O)c1OCOC(C)(C)C` [Compound 8], the pest or weed control at 100 ppm was < 25%.

On to `COc1ccnc(C(=O)N[C@H]2COC(=O)[C@H](Cc3ccccc3)[C@@H](OC(=O)C(C)C)[C@H](C)OC2=O)c1OCOCC(C)C` [Compound 9], for which the pest or weed control at 100 ppm was < 25%.

As to `COc1ccnc(C(=O)N[C@H]2COC(=O)[C@H](Cc3ccccc3)[C@@H](OC(=O)C(C)C)[C@H](C)OC2=O)c1OCOCc1ccccc1` [Compound 10], the pest or weed control at 100 ppm lay in the range of 25 to 74%.

Turning to `COCCOCOc1c(OC)ccnc1C(=O)N[C@H]1COC(=O)[C@H](Cc2ccccc2)[C@@H](OC(=O)C(C)C)[C@H](C)OC1=O` [Compound 11], the pest or weed control at 100 ppm was < 25%.

As for `COCC(C)OCOc1c(OC)ccnc1C(=O)N[C@H]1COC(=O)[C@H](Cc2ccccc2)[C@@H](OC(=O)C(C)C)[C@H](C)OC1=O` (stereo partly shown) [Compound 12], the pest or weed control at 100 ppm lay within 75 to 100%.

Take `COc1ccnc(C(=O)N[C@H]2COC(=O)[C@H](Cc3ccccc3)[C@@H](OC(=O)C(C)C)[C@H](C)OC2=O)c1OCO[Si](C)(C)C` [Compound 13]: the pest or weed control at 100 ppm is 25 to 74%.

Regarding `COc1ccnc(C(=O)N[C@H]2COC(=O)[C@H](Cc3ccccc3)[C@@H](OC(=O)C(C)C)[C@H](C)OC2=O)c1OCOCCCl` [Compound 14], the pest or weed control at 100 ppm is < 25%.

On to `COc1ccnc(C(=O)N[C@H]2COC(=O)[C@H](Cc3ccccc3)[C@@H](OC(=O)C(C)C)[C@H](C)OC2=O)c1OCOCCC#N` [Compound 15], for which the pest or weed control at 100 ppm is < 25%.

With `COc1ccnc(C(=O)N[C@H]2COC(=O)[C@H](Cc3ccccc3)[C@@H](OC(=O)C(C)C)[C@H](C)OC2=O)c1OC(C)OC` (stereo partly shown) [Compound 16], the pest or weed control at 100 ppm was < 25%.

In the case of `COc1ccnc(C(=O)N[C@H]2COC(=O)[C@H](Cc3ccccc3)[C@@H](OC(=O)C(C)C)[C@H](C)OC2=O)c1OCOCCOC(C)=O` [Compound 17], the pest or weed control at 100 ppm was 25 to 74%.

With `COc1ccnc(C(=O)N[C@H]2COC(=O)[C@H](Cc3ccccc3)[C@@H](OC(=O)C(C)C)[C@H](C)OC2=O)c1OCSC` [Compound 18], the pest or weed control at 100 ppm was 25 to 74%.

Consider `COc1ccnc(C(=O)N[C@H]2COC(=O)[C@H](Cc3ccccc3)[C@@H](OC(=O)C(C)C)[C@H](C)OC2=O)c1OCSc1ccccc1` [Compound 19], for which the pest or weed control at 100 ppm is < 25%.

As for `COc1ccnc(C(=O)N[C@H]2COC(=O)[C@H](Cc3ccccc3)[C@@H](OC(=O)C(C)C)[C@H](C)OC2=O)c1OCOC(C)=O` [Compound 20], the pest or weed control at 100 ppm is < 25%.

As to `CCC(=O)OCOc1c(OC)ccnc1C(=O)N[C@H]1COC(=O)[C@H](Cc2ccccc2)[C@@H](OC(=O)C(C)C)[C@H](C)OC1=O` [Compound 21], the pest or weed control at 100 ppm lay in the range of 25 to 74%.

As for `CCCC(=O)OCOc1c(OC)ccnc1C(=O)N[C@H]1COC(=O)[C@H](Cc2ccccc2)[C@@H](OC(=O)C(C)C)[C@H](C)OC1=O` [Compound 22], the pest or weed control at 100 ppm was < 25%.

As for `COc1ccnc(C(=O)N[C@H]2COC(=O)[C@H](Cc3ccccc3)[C@@H](OC(=O)C(C)C)[C@H](C)OC2=O)c1OCOC(=O)C(C)C` [Compound 23], the pest or weed control at 100 ppm lay within 75 to 100%.

Turning to `COc1ccnc(C(=O)N[C@H]2COC(=O)[C@H](Cc3ccccc3)[C@@H](OC(=O)C(C)C)[C@H](C)OC2=O)c1OCOC(=O)C(C)(C)C` [Compound 24], the pest or weed control at 100 ppm was < 25%.

On to `COc1ccnc(C(=O)N[C@H]2COC(=O)[C@H](Cc3ccccc3)[C@@H](OC(=O)C(C)C)[C@H](C)OC2=O)c1OC(C)OC(C)=O` (stereo partly shown) [Compound 25], for which the pest or weed control at 100 ppm lay in the range of 25 to 74%.

With `COc1ccnc(C(=O)N[C@H]2COC(=O)[C@H](Cc3ccccc3)[C@@H](OC(=O)C(C)C)[C@H](C)OC2=O)c1OCOC(=O)C1CC1` [Compound 26], the pest or weed control at 100 ppm was < 25%.

For `COCCC(=O)OCOc1c(OC)ccnc1C(=O)N[C@H]1COC(=O)[C@H](Cc2ccccc2)[C@@H](OC(=O)C(C)C)[C@H](C)OC1=O` [Compound 27], the pest or weed control at 100 ppm lay within 25 to 74%.

Regarding `CCOCCC(=O)OCOc1c(OC)ccnc1C(=O)N[C@H]1COC(=O)[C@H](Cc2ccccc2)[C@@H](OC(=O)C(C)C)[C@H](C)OC1=O` [Compound 28], the pest or weed control at 100 ppm lay within 25 to 74%.

On to `COc1ccnc(C(=O)N[C@H]2COC(=O)[C@H](Cc3ccccc3)[C@@H](OC(=O)C(C)C)[C@H](C)OC2=O)c1OCOC(=O)c1ccccc1` [Compound 29], for which the pest or weed control at 100 ppm was 25 to 74%.

With `COCC(=O)OCOc1c(OC)ccnc1C(=O)N[C@H]1COC(=O)[C@H](Cc2ccccc2)[C@@H](OC(=O)C(C)C)[C@H](C)OC1=O` [Compound 30], the pest or weed control at 100 ppm lay in the range of 25 to 74%.

In the case of `CCOCC(=O)OCOc1c(OC)ccnc1C(=O)N[C@H]1COC(=O)[C@H](Cc2ccccc2)[C@@H](OC(=O)C(C)C)[C@H](C)OC1=O` [Compound 31], the pest or weed control at 100 ppm was 75 to 100%.

In the case of `COC(=O)CCC(=O)OCOc1c(OC)ccnc1C(=O)N[C@H]1COC(=O)[C@H](Cc2ccccc2)[C@@H](OC(=O)C(C)C)[C@H](C)OC1=O` [Compound 32], the pest or weed control at 100 ppm fell in the range of 75 to 100%.

With `COc1ccnc(C(=O)N[C@H]2COC(=O)[C@H](Cc3ccccc3)[C@@H](OC(=O)C(C)C)[C@H](C)OC2=O)c1OCOC(=O)C1CCCC1` [Compound 33], the pest or weed control at 100 ppm fell in the range of 25 to 74%.

`COc1ccnc(C(=O)N[C@H]2COC(=O)[C@H](Cc3ccccc3)[C@@H](OC(=O)C(C)C)[C@H](C)OC2=O)c1OCOC(=O)C1CCCO1` (stereo partly shown) [Compound 34]: the pest or weed control at 100 ppm is < 25%.

With `CCCOCC(=O)OCOc1c(OC)ccnc1C(=O)N[C@H]1COC(=O)[C@H](Cc2ccccc2)[C@@H](OC(=O)C(C)C)[C@H](C)OC1=O` [Compound 35], the pest or weed control at 100 ppm was in the range of 25 to 74%.

For `COc1ccnc(C(=O)N[C@H]2COC(=O)[C@H](Cc3ccccc3)[C@@H](OC(=O)C(C)C)[C@H](C)OC2=O)c1OCOC(=O)COC(C)C` [Compound 36], the pest or weed control at 100 ppm is < 25%.

Take `CCCCOCC(=O)OCOc1c(OC)ccnc1C(=O)N[C@H]1COC(=O)[C@H](Cc2ccccc2)[C@@H](OC(=O)C(C)C)[C@H](C)OC1=O` [Compound 37]: the pest or weed control at 100 ppm is < 25%.

As to `COc1ccnc(C(=O)N[C@H]2COC(=O)[C@H](Cc3ccccc3)[C@@H](OC(=O)C(C)C)[C@H](C)OC2=O)c1OCOC(=O)COCC(C)C` [Compound 38], the pest or weed control at 100 ppm was < 25%.

Consider `CCC(C)OCC(=O)OCOc1c(OC)ccnc1C(=O)N[C@H]1COC(=O)[C@H](Cc2ccccc2)[C@@H](OC(=O)C(C)C)[C@H](C)OC1=O` (stereo partly shown) [Compound 39], for which the pest or weed control at 100 ppm was < 25%.

On to `COCCOCC(=O)OCOc1c(OC)ccnc1C(=O)N[C@H]1COC(=O)[C@H](Cc2ccccc2)[C@@H](OC(=O)C(C)C)[C@H](C)OC1=O` [Compound 40], for which the pest or weed control at 100 ppm was 25 to 74%.

Take `COc1ccnc(C(=O)N[C@H]2COC(=O)[C@H](Cc3ccccc3)[C@@H](OC(=O)C(C)C)[C@H](C)OC2=O)c1OCOC(=O)COC1CCCC1` [Compound 41]: the pest or weed control at 100 ppm is 25 to 74%.

Turning to `COc1ccnc(C(=O)N[C@H]2COC(=O)[C@H](Cc3ccccc3)[C@@H](OC(=O)C(C)C)[C@H](C)OC2=O)c1OCOC(=O)COc1ccccc1` [Compound 42], the pest or weed control at 100 ppm is < 25%.

For the molecule `COc1ccnc(C(=O)N[C@H]2COC(=O)[C@H](Cc3ccccc3)[C@@H](OC(=O)C(C)C)[C@H](C)OC2=O)c1OC1OC(=O)c2ccccc21` (stereo partly shown) [Compound 43], the pest or weed control at 100 ppm lay in the range of 25 to 74%.

With `COC(=O)OCOc1c(OC)ccnc1C(=O)N[C@H]1COC(=O)[C@H](Cc2ccccc2)[C@@H](OC(=O)C(C)C)[C@H](C)OC1=O` [Compound 44], the pest or weed control at 100 ppm lay in the range of 25 to 74%.

For `CCOC(=O)OCOc1c(OC)ccnc1C(=O)N[C@H]1COC(=O)[C@H](Cc2ccccc2)[C@@H](OC(=O)C(C)C)[C@H](C)OC1=O` [Compound 45], the pest or weed control at 100 ppm lay within 75 to 100%.

Consider `CCCOC(=O)OCOc1c(OC)ccnc1C(=O)N[C@H]1COC(=O)[C@H](Cc2ccccc2)[C@@H](OC(=O)C(C)C)[C@H](C)OC1=O` [Compound 46], for which the pest or weed control at 100 ppm was in the range of 25 to 74%.

On to `COc1ccnc(C(=O)N[C@H]2COC(=O)[C@H](Cc3ccccc3)[C@@H](OC(=O)C(C)C)[C@H](C)OC2=O)c1OCOC(=O)OC(C)C` [Compound 47], for which the pest or weed control at 100 ppm was in the range of 25 to 74%.

With `COCCOC(=O)OCOc1c(OC)ccnc1C(=O)N[C@H]1COC(=O)[C@H](Cc2ccccc2)[C@@H](OC(=O)C(C)C)[C@H](C)OC1=O` [Compound 48], the pest or weed control at 100 ppm is < 25%.

Take `COc1ccnc(C(=O)N[C@H]2COC(=O)[C@H](Cc3ccccc3)[C@@H](OCC(C)C)[C@H](C)OC2=O)c1OCOC(C)=O` [Compound 49]: the pest or weed control at 100 ppm is < 25%.

Regarding `COc1ccnc(C(=O)N[C@H]2COC(=O)[C@H](Cc3ccccc3)[C@@H](OC3CCCC3)[C@H](C)OC2=O)c1OCOC(C)=O` [Compound 50], the pest or weed control at 100 ppm lay in the range of 25 to 74%.

As for `CCCO[C@H]1[C@H](C)OC(=O)[C@@H](NC(=O)c2nccc(OC)c2OCOC(C)=O)COC(=O)[C@@H]1Cc1ccccc1` [Compound 51], the pest or weed control at 100 ppm was 25 to 74%.

Consider `C=CCO[C@H]1[C@H](C)OC(=O)[C@@H](NC(=O)c2nccc(OC)c2OCOC(C)=O)COC(=O)[C@@H]1Cc1ccccc1` [Compound 52], for which the pest or weed control at 100 ppm is 25 to 74%.
